± gives the standard deviation of the averaged measurements. Some of the results follow.

The experiment concerns PfAP2-LT AP2 domain (GST-tagged). Description: gcPBM binding intensity (ln(normalized median fluorescence intensity)); higher = stronger DNA binding. The essentials: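 For binding intensity, the highest Masliner-normalised natural-log median intensity across replicate spots of either probe orientation was taken. Protein bound to the array was stained with Alexa488 anti-GST antibody and scanned at 488 nm. The protein, GST-tagged P. falciparum DNA-binding domains from E. coli at about 25 μg on average, had been applied for 1 h to an Agilent 4 × 180k array of primer-extended double-stranded 36-bp intergenic genomic probes and negative controls.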
In the case of “GTATGTATGTATGTATGTACGTATGTATGTATATAT [XGTACX_site3369]”, the “gcPBM binding intensity (ln)” value was found to be 9.2 ± 0.36.

Turning to “AATAATTATAAAAAATGTACAAAAAAAAAAAAAAAA [XGTACX_site3681]”, the “gcPBM binding intensity (ln)” value amounted to 8.68 ± 0.45.

In the case of “AGAATACATCTATGAACACACAGAGTTTTAAAAAAT [CACACA_site5514]”, the “gcPBM binding intensity (ln)” value was found to be 8.98 ± 0.47.

On to “ATTAAAAATAAGAAGAGTACATATAATATATATACA [XGTACX_site3092]”, for which the “gcPBM binding intensity (ln)” value was 8.73 ± 0.46.

For “ACCTTTTGGATTATATGTACATATATATATATATAT [XGTACX_site2687]”, the “gcPBM binding intensity (ln)” value is 9.61 ± 0.26.

With “TTAAAAAGAAAGTTCACACACATATATATGACGGAA [CACACA_site2602]”, the “gcPBM binding intensity (ln)” value was 9.19 ± 0.35.

As to “AAAATAATATTTAATACACACATAATTATAATATAA [CACACA_site782]”, the “gcPBM binding intensity (ln)” value was determined as 8.75 ± 0.42.

In the case of “ATTTTTAATTGAATCACACATTTCCTTTCTTTTGTG [CACACA_site4438]”, the “gcPBM binding intensity (ln)” value amounted to 8.95 ± 0.45.

On to “CATAAAATATAAAACACACACACATATATTTATATA [CACACA_site6247]”, for which the “gcPBM binding intensity (ln)” value is 9.66 ± 0.19.

With “AAATAAAAGTTCACCTGTACACACATATATATATGT [XGTACX_site3513]”, the “gcPBM binding intensity (ln)” value was determined as 9.41 ± 0.38.

For the sequence “TTAACATAGATATATACACACCAATGATGGCATTTA [CACACA_site6840]”, the “gcPBM binding intensity (ln)” value came out at 8.79 ± 0.39.

Regarding “TTTTTTTTTTTTTAGAGTACACACTTTTTTACATTT [XGTACX_site8159]”, the “gcPBM binding intensity (ln)” value worked out at 8.71 ± 0.54.

Take “TATATATATATATATATACACACTATATAATTCAAA [CACACA_site1023]”: the “gcPBM binding intensity (ln)” value came out at 9.67 ± 0.042.

As for “ATACTAAATATAAATTGTACTTTATTTATATTGAGA [XGTACX_site8699]”, the “gcPBM binding intensity (ln)” value amounted to 8.52 ± 0.4.

For the sequence “TTCCTCTTAAAATATACACACTGATTTAAGAAAAAA [CACACA_site5770]”, the “gcPBM binding intensity (ln)” value stood at 8.23 ± 0.42.

With ATATATAATACTACAGTGCAATATATTATATTTGTT, the “gcPBM binding intensity (ln)” value came to 8.8 ± 0.39.

Take “TTGTGATTATTATATTGTACAATAAGTATTAAAGAA [XGTACX_site2753]”: the “gcPBM binding intensity (ln)” value was 8.62 ± 0.46.

As for GCAAATCATGCTATGGTGCATATGTAAGATGAGCAT, the “gcPBM binding intensity (ln)” value turned out to be 8.97 ± 0.4.

On to “TTACATATTATACGAAGTACGTACAAATACTTATAT [XGTACX_site8598]”, for which the “gcPBM binding intensity (ln)” value was determined as 8.78 ± 0.44.

Consider “TTTTTTTTTTTTTTTTTTAAACACCTCAAAAAAAAA [CACACA_negctrl_site807]”, for which the “gcPBM binding intensity (ln)” value stood at 7.91 ± 0.17.

Consider “TTGCATTGTCCATGCGCACACACTACTAGAATAATA [CACACA_site3678]”, for which the “gcPBM binding intensity (ln)” value worked out at 9.22 ± 0.36.

Regarding “AATTATAAATTGGACACACACATAAAAAATATGTAC [CACACA_site221]”, the “gcPBM binding intensity (ln)” value is 9.32 ± 0.41.

Regarding “TAAAGGAAATAAAAAACATGCAAATATGAAATATAT [TGCATGCA_site745]”, the “gcPBM binding intensity (ln)” value amounted to 8.91 ± 0.52.

As for “ATACATAATAACTCCTGTACTTAAAAATGTATATAT [XGTACX_site1071]”, the “gcPBM binding intensity (ln)” value is 8.69 ± 0.45.

Take “TAAAAAAAAACATGTGCACACGTTTTATCTACATAA [CACACA_site2336]”: the “gcPBM binding intensity (ln)” value came out at 10.1 ± 0.32.

For the sequence “TCATTTATTGAGGAATGTACACGTAAAATTTAATAA [XGTACX_site4086]”, the “gcPBM binding intensity (ln)” value is 8.62 ± 0.4.

“TTTTTTTTTTTTTTATGTACATATATATATTTTATT [XGTACX_site6915]”: the “gcPBM binding intensity (ln)” value was 8.88 ± 0.49.

For “ATATATATTATAAAATGTACAAATGTTATATAAAAT [XGTACX_site4750]”, the “gcPBM binding intensity (ln)” value stood at 8.81 ± 0.46.

For the sequence “ATTTTTTTTTTTTTTTTCTTTTTTCTTCTTTTTTTT [CACACA_negctrl_site1223]”, the “gcPBM binding intensity (ln)” value came to 8.63 ± 0.66.

For “ACCTTATTTAGTTATAGTACACAAAGTATTAAACAT [XGTACX_site8418]”, the “gcPBM binding intensity (ln)” value is 8.96 ± 0.3.

With “GCGAATAATATGGACATACACACATATACATACATA [CACACA_site2115]”, the “gcPBM binding intensity (ln)” value came to 9.36 ± 0.4.

Take TATATATATTTTTGTGTGCACTATAATATGAAAATA: the “gcPBM binding intensity (ln)” value was determined as 8.82 ± 0.4.

On to “TTTTTTTTTTTCTTCACACACAGTACTACTATTTAT [CACACA_site2409]”, for which the “gcPBM binding intensity (ln)” value was found to be 9.28 ± 0.44.

As to “TTGTTTATTTGTAAAGCTAACAAGAAATGTGAATAT [CACACA_negctrl_site931]”, the “gcPBM binding intensity (ln)” value turned out to be 8.58 ± 0.37.

“AACGAACACTATTACACACATACATACATATGTATG [CACACA_site1859]”: the “gcPBM binding intensity (ln)” value is 9.34 ± 0.33.

Consider “TTATTATTATAAAATTGTACTTGGTATATTAACATA [XGTACX_site5829]”, for which the “gcPBM binding intensity (ln)” value is 8.45 ± 0.42.

In the case of “TATACATAAAAATGATGTACATATAATATATATATA [XGTACX_site3863]”, the “gcPBM binding intensity (ln)” value was determined as 8.81 ± 0.49.

On to “AATGTATTATGTCTTCGTACACATAAATAAATAAAT [XGTACX_site4004]”, for which the “gcPBM binding intensity (ln)” value worked out at 8.68 ± 0.44.

As to “ATATAAATATATTTTACACACAATGGAGAAAAAAAT [CACACA_site6450]”, the “gcPBM binding intensity (ln)” value stood at 9.11 ± 0.48.

On to “ATCTTGAAGATTATTTGTACACAAAAGTTAAAATAT [XGTACX_site242]”, for which the “gcPBM binding intensity (ln)” value turned out to be 8.57 ± 0.49.

In the case of “GGATTAATATATTTACCACACACCCATTTCGATTTT [CACACA_site9200]”, the “gcPBM binding intensity (ln)” value was determined as 9.28 ± 0.35.

Regarding “TATATAATTATTTATTGTACACTCAAATCGATAAGG [XGTACX_site3216]”, the “gcPBM binding intensity (ln)” value was 8.47 ± 0.4.

For the sequence “TATTTATAAATATAAACACACAACATTCTATGCATA [CACACA_site3243]”, the “gcPBM binding intensity (ln)” value came to 8.78 ± 0.43.

For the sequence “TAAATCTATATCATCACACACACATACATAAATATA [CACACA_site6228]”, the “gcPBM binding intensity (ln)” value turned out to be 9.63 ± 0.26.

Take “TAGTATTGTAAAAAAAAAAAAGAAAAAAAAAAAAAA [CACACA_negctrl_site977]”: the “gcPBM binding intensity (ln)” value came out at 8.3 ± 0.49.

For the origin of these results see the supplement of paper PMC11417369.
